{"source": "the supplement of paper PMC3334620", "note": "In all, about 33,000 sequences were measured (“E-score (-0.5 to 0.5)”: median about -0.01, highest 2% from about 0.26 on). Some of the results follow.", "data": [{"target": "Ste12 (UniProt P13574)", "assay": "PBM E-score (8-mer binding enrichment) (E-score (-0.5 to 0.5)); higher = stronger / more preferred TF binding; most listed sequences are background and not binding sites", "conditions": "protein concentration: 200 nM; construct: GST-DNA-binding domain", "method_in_brief": "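For each ungapped eight-base word taken together with its reverse complement, the Universal PBM Analysis Suite assigned an E-score. Binding data came from GST-tagged yeast transcription factors, applied at about 100-200 nM, on universal all-10-mer Agilent arrays made double-stranded by primer extension. Fluorescent anti-GST marked bound protein, and scans were normalised with masliner.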", "values": [{"sequence": "GCACTCAA", "PBM E-score": -0.197}, {"sequence": "ATATCACG", "PBM E-score": -0.0106}, {"sequence": "CGCATAAA", "PBM E-score": 0.0157}, {"sequence": "ATTAAGAC", "PBM E-score": 0.0185}, {"sequence": "CCTGATTC", "PBM E-score": -0.0828}, {"sequence": "GCGTGTCC", "PBM E-score": -0.229}, {"sequence": "ACACATGT", "PBM E-score": 0.154}, {"sequence": "CATTCAGA", "PBM E-score": 0.184}, {"sequence": "ATCCGCTA", "PBM E-score": -0.129}, {"sequence": "ACCTGGGC", "PBM E-score": -0.288}, {"sequence": "GGTTGAAC", "PBM E-score": -0.0192}, {"sequence": "CATTAACG", "PBM E-score": 0.0567}, {"sequence": "AAGAATCA", "PBM E-score": 0.153}, {"sequence": "CCCCGGGG", "PBM E-score": -0.186}, {"sequence": "ATTTCTAC", "PBM E-score": 0.253}, {"sequence": "ACTACTTG", "PBM E-score": -0.0513}, {"sequence": "GCACGTGA", "PBM E-score": -0.119}, {"sequence": "AACTTAAC", "PBM E-score": 0.235}, {"sequence": "GAAGCACA", "PBM E-score": -0.135}, {"sequence": "CAATCCCG", "PBM E-score": 0.321}, {"sequence": "ATACCGTG", "PBM E-score": 0.0304}, {"sequence": "AACGTACT", "PBM E-score": 0.11}, {"sequence": "TCCAATAA", "PBM E-score": 0.0822}, {"sequence": "CGCCCCGC", "PBM E-score": 0.0909}, {"sequence": "ACATAGAC", "PBM E-score": 0.0996}, {"sequence": "ACACATCC", "PBM E-score": -0.0267}, {"sequence": "GACTGCAA", "PBM E-score": -0.0231}, {"sequence": "AAGGCAAT", "PBM E-score": -0.00323}, {"sequence": "ATAGCCTG", "PBM E-score": -0.0913}, {"sequence": "AAGCCCAG", "PBM E-score": 0.0302}, {"sequence": "GGTGTTGA", "PBM E-score": -0.0828}, {"sequence": "CTGACAAA", "PBM E-score": 0.091}, {"sequence": "AAAGGATT", "PBM E-score": -0.00765}, {"sequence": "CAACCACA", "PBM E-score": 0.0344}, {"sequence": "AAAAGGCA", "PBM E-score": 0.185}, {"sequence": "AAAGTGCT", "PBM E-score": 0.0194}, {"sequence": "AGCACCGA", "PBM E-score": 0.0738}, {"sequence": "ATACTGGA", "PBM E-score": 0.176}, {"sequence": "CTTCTTCC", "PBM E-score": -0.124}, {"sequence": "AGCCAACC", "PBM E-score": 0.0798}, {"sequence": "AAGACGAC", "PBM E-score": 0.00196}, {"sequence": "TGAGATCA", "PBM E-score": -0.0953}, {"sequence": "ACACTGCA", "PBM E-score": -0.172}, {"sequence": "ACGTTTGG", "PBM E-score": 0.127}, {"sequence": "ACCGGGGA", "PBM E-score": -0.0805}, {"sequence": "ATGTATCG", "PBM E-score": 0.0479}, {"sequence": "ATCAGGTG", "PBM E-score": -0.0202}, {"sequence": "GTGTAAAC", "PBM E-score": -0.114}, {"sequence": "AAGGCATC", "PBM E-score": -0.058}, {"sequence": "CTAAAGCA", "PBM E-score": 0.0923}, {"sequence": "AGAGACTC", "PBM E-score": -0.127}, {"sequence": "CGAGTGCG", "PBM E-score": -0.0316}, {"sequence": "CTAGAGTC", "PBM E-score": -0.188}, {"sequence": "AGGCAGGC", "PBM E-score": -0.144}, {"sequence": "ATGGACAA", "PBM E-score": -0.0663}, {"sequence": "AGGGTATG", "PBM E-score": -0.0375}, {"sequence": "CCAATTCC", "PBM E-score": 0.0558}, {"sequence": "ATTATCGC", "PBM E-score": 0.15}, {"sequence": "CGGAAAAA", "PBM E-score": 0.343}, {"sequence": "AACTGTGG", "PBM E-score": 0.127}, {"sequence": "CGCGTCAG", "PBM E-score": -0.202}, {"sequence": "GAGAGGAA", "PBM E-score": -0.0121}, {"sequence": "ATACTCAT", "PBM E-score": -0.0101}, {"sequence": "AATCAAAT", "PBM E-score": 0.196}, {"sequence": "ACCAGAAC", "PBM E-score": 0.189}, {"sequence": "AGAAAGGA", "PBM E-score": -0.0699}, {"sequence": "ATTTAACA", "PBM E-score": 0.181}, {"sequence": "TAAGACTA", "PBM E-score": -0.073}, {"sequence": "GAGAATCC", "PBM E-score": -0.126}, {"sequence": "GAATTTGA", "PBM E-score": 0.1}, {"sequence": "AACTCGAG", "PBM E-score": 0.146}, {"sequence": "GAAGGGAA", "PBM E-score": -0.165}, {"sequence": "CTTAATAC", "PBM E-score": 0.207}, {"sequence": "ACCTCTCC", "PBM E-score": -0.174}, {"sequence": "AAAGATCG", "PBM E-score": 0.0688}, {"sequence": "CGTCTCAG", "PBM E-score": 0.149}, {"sequence": "ACAGTGGA", "PBM E-score": -0.0823}, {"sequence": "CGAGCGTA", "PBM E-score": -0.137}, {"sequence": "CATAGCTC", "PBM E-score": -0.166}, {"sequence": "CGATGATA", "PBM E-score": -0.0622}, {"sequence": "CAGGGTCC", "PBM E-score": -0.0999}, {"sequence": "CAGATTAC", "PBM E-score": 0.0121}, {"sequence": "ACGATGTA", "PBM E-score": -0.158}, {"sequence": "CAATACCC", "PBM E-score": -0.00702}, {"sequence": "TCCGAAGA", "PBM E-score": 0.043}, {"sequence": "CGCAATAG", "PBM E-score": 0.135}, {"sequence": "CGATGGCA", "PBM E-score": 0.0478}, {"sequence": "ACCGACGG", "PBM E-score": 0.0928}, {"sequence": "AACGCATA", "PBM E-score": 0.0787}, {"sequence": "CTGTGTTC", "PBM E-score": -0.041}, {"sequence": "AGTCACAG", "PBM E-score": -0.0285}, {"sequence": "CCCCCGCA", "PBM E-score": -0.15}, {"sequence": "CAGAAAGG", "PBM E-score": -0.0302}, {"sequence": "TTACGCAA", "PBM E-score": 0.0927}, {"sequence": "AACAGTGA", "PBM E-score": 0.18}, {"sequence": "GTACAGTA", "PBM E-score": 0.0242}, {"sequence": "TGGCGAAA", "PBM E-score": 0.135}, {"sequence": "TAGCACAA", "PBM E-score": -0.0915}, {"sequence": "CTTCAATA", "PBM E-score": 0.00592}, {"sequence": "GTGATAAA", "PBM E-score": 0.131}, {"sequence": "GCGTCCAA", "PBM E-score": -0.13}, {"sequence": "TACGCTCA", "PBM E-score": -0.0351}, {"sequence": "CAGGGAAG", "PBM E-score": -0.157}, {"sequence": "CGGAGAAC", "PBM E-score": -0.175}, {"sequence": "TGTTACAA", "PBM E-score": 0.387}, {"sequence": "GTACTCGA", "PBM E-score": -0.177}, {"sequence": "GAGATCTA", "PBM E-score": 0.0239}, {"sequence": "CATATGAA", "PBM E-score": 0.176}, {"sequence": "GGAGCTAC", "PBM E-score": -0.161}, {"sequence": "ACGCTCGC", "PBM E-score": 0.15}, {"sequence": "AGAGTCTG", "PBM E-score": -0.119}, {"sequence": "AGCTAATC", "PBM E-score": 0.0509}, {"sequence": "TAGCCAGA", "PBM E-score": -0.0355}, {"sequence": "GTCCACGA", "PBM E-score": -0.134}, {"sequence": "ACAGGGAA", "PBM E-score": -0.0357}, {"sequence": "AGCCCAGC", "PBM E-score": -0.211}, {"sequence": "AATTGTAA", "PBM E-score": 0.118}, {"sequence": "GGAGTGTA", "PBM E-score": -0.0442}, {"sequence": "ATTTACCC", "PBM E-score": 0.125}, {"sequence": "ACCATAAA", "PBM E-score": 0.278}, {"sequence": "CCCAATAC", "PBM E-score": -0.0496}, {"sequence": "AAGAACCC", "PBM E-score": 0.0789}, {"sequence": "GAGTGTCA", "PBM E-score": 0.0324}, {"sequence": "AGAGTGCA", "PBM E-score": -0.0994}, {"sequence": "TAGACGAA", "PBM E-score": 0.0213}, {"sequence": "CTTAAAGA", "PBM E-score": 0.0344}, {"sequence": "CATAACAG", "PBM E-score": -0.162}, {"sequence": "AGGAACGG", "PBM E-score": 0.0512}, {"sequence": "ATTAACAC", "PBM E-score": 0.186}, {"sequence": "CTTTGGTA", "PBM E-score": -0.22}, {"sequence": "GCCCACCA", "PBM E-score": -0.0497}, {"sequence": "CCCAAGCG", "PBM E-score": -0.184}, {"sequence": "AACTTGTA", "PBM E-score": -0.0176}, {"sequence": "ATACCTAT", "PBM E-score": 0.121}, {"sequence": "ATAGAGGG", "PBM E-score": -0.0393}, {"sequence": "ACTTCTCC", "PBM E-score": -0.213}, {"sequence": "GCGAGTGA", "PBM E-score": 0.08}, {"sequence": "AACATCAA", "PBM E-score": 0.247}, {"sequence": "ACTAAGAT", "PBM E-score": 0.0816}, {"sequence": "TGGTAAAA", "PBM E-score": 0.154}, {"sequence": "CGTAGGTC", "PBM E-score": -0.211}, {"sequence": "CGTCTCAC", "PBM E-score": 0.222}, {"sequence": "AATGCAAG", "PBM E-score": 0.122}, {"sequence": "CAATCCGC", "PBM E-score": 0.0698}, {"sequence": "CGAGAGAC", "PBM E-score": -0.0697}, {"sequence": "ATATATTG", "PBM E-score": 0.153}, {"sequence": "GAGCTGAA", "PBM E-score": -0.0532}, {"sequence": "ATTGGGCG", "PBM E-score": -0.00653}, {"sequence": "AATCACGC", "PBM E-score": -0.093}, {"sequence": "CTATTTAC", "PBM E-score": 0.00668}, {"sequence": "TCCCGCCA", "PBM E-score": 0.101}, {"sequence": "GGCTTATA", "PBM E-score": -0.0311}, {"sequence": "ACCGAGTA", "PBM E-score": -0.192}, {"sequence": "TATTGCGA", "PBM E-score": 0.253}, {"sequence": "CTGGTATA", "PBM E-score": -0.144}, {"sequence": "ATGCTTAA", "PBM E-score": 0.0449}, {"sequence": "CATCACGC", "PBM E-score": -0.119}, {"sequence": "AAGCTACA", "PBM E-score": -0.223}, {"sequence": "AAGATTAA", "PBM E-score": 0.11}, {"sequence": "GAAACCTA", "PBM E-score": 0.148}, {"sequence": "GACCCTTA", "PBM E-score": -0.128}, {"sequence": "CATTCCTC", "PBM E-score": 0.0999}, {"sequence": "GAGTCTGA", "PBM E-score": -0.0306}, {"sequence": "CATAGACA", "PBM E-score": -0.011}, {"sequence": "ATTTGTAC", "PBM E-score": -0.0801}, {"sequence": "TCATGTAA", "PBM E-score": 0.198}, {"sequence": "AAATGCGT", "PBM E-score": 0.188}, {"sequence": "AGCGGCCC", "PBM E-score": -0.196}, {"sequence": "ACTACAGT", "PBM E-score": 0.0382}, {"sequence": "CAAGCCTG", "PBM E-score": -0.0773}, {"sequence": "GCGTTCAC", "PBM E-score": -0.0168}, {"sequence": "ATGTTGCC", "PBM E-score": -0.0478}]}]}
